For 63 sequences, binding signal (RPM ratio (pull-down/input)) results are on record in paper PMC12820563.

This is one part of the list. The list includes weakly bound sequences.

For the assay, the target named is T1, MBP-FoxP3dN (UniProt Q99JB6).
T1 sequence: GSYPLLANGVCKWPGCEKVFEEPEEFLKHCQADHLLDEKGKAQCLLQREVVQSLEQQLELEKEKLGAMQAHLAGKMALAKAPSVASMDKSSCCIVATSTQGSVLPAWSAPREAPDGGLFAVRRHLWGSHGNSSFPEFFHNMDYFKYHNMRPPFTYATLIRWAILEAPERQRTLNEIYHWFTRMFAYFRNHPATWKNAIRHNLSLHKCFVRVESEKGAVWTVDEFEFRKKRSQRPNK
Kind of assay: PD-seq (MBP pull-down with sequencing). The settings on record: 20 mM Tris-HCl pH 7.5, 100 mM NaCl, 1.5 mM MgCl2, 0.4 uM protein, 0.1 uM dsDNA library, 30 min, room temperature, amylose pull-down; high values mean tight binding; double strand, one strand shown.
On to “GATGATTGTTCTCCCAGCTGATGAATTACTTACGTCGAGTAAACAAATTTTCCTAATCTTTCTGTTCAAGCGCCATCTAC”, for which the binding signal (RPM ratio (pull-down/input)) was 0.48.
With “GATGATTGTTCTCCCAGCTGATGAATTGGGGCGATCGAGTAAACAAATTTTCCTAATCTTTCTGTTCAAGCGCCATCTAC” the figure was 0.488; with “GATGATTGTTCTCCCAGCTGATGAATTTGGTCCGTCGAGTAAACAAATTTTCCTAATCTTTCTGTTCAAGCGCCATCTAC”, 0.363; with “GATGATTGTTCTCCCAGCTGATGAATTTTTATTGTCGAGTAAACAAATTTTCCTAATCTTTCTGTTCAAGCGCCATCTAC”, 0.972.
The result for “GATGATTGTTCTCCCAGCTGATGAATTGGTACTGTCGAGTAAACAAATTTTCCTAATCTTTCTGTTCAAGCGCCATCTAC” reads 0.64; that for “GATGATTGTTCTCCCAGCTGATGAATTCACAATGTCGAGTAAACAAATTTTCCTAATCTTTCTGTTCAAGCGCCATCTAC”, 0.427; that for “GATGATTGTTCTCCCAGCTGATGAATTTAGTTATTCGAGTAAACAAATTTTCCTAATCTTTCTGTTCAAGCGCCATCTAC”, 4.3.
With “GATGATTGTTCTCCCAGCTGATGAATTGATTCCTTCGAGTAAACAAATTTTCCTAATCTTTCTGTTCAAGCGCCATCTAC” the figure was 0.401; with “GATGATTGTTCTCCCAGCTGATGAATTAGTCACGTCGAGTAAACAAATTTTCCTAATCTTTCTGTTCAAGCGCCATCTAC”, 1.16; with “GATGATTGTTCTCCCAGCTGATGAATTATTCCGGTCGAGTAAACAAATTTTCCTAATCTTTCTGTTCAAGCGCCATCTAC”, 0.22.
Turning to “GATGATTGTTCTCCCAGCTGATGAATTTATCAGATCGAGTAAACAAATTTTCCTAATCTTTCTGTTCAAGCGCCATCTAC”, the binding signal (RPM ratio (pull-down/input)) stood at 0.318.
The result for “GATGATTGTTCTCCCAGCTGATGAATTAGTAGGCTCGAGTAAACAAATTTTCCTAATCTTTCTGTTCAAGCGCCATCTAC” reads 0.807.
With “GATGATTGTTCTCCCAGCTGATGAATTGCGGCAGTCGAGTAAACAAATTTTCCTAATCTTTCTGTTCAAGCGCCATCTAC” the figure was 0.792.
As to “GATGATTGTTCTCCCAGCTGATGAATTACGAGCCTCGAGTAAACAAATTTTCCTAATCTTTCTGTTCAAGCGCCATCTAC”, the binding signal (RPM ratio (pull-down/input)) was 0.504.
With “GATGATTGTTCTCCCAGCTGATGAATTTACCATGTCGAGTAAACAAATTTTCCTAATCTTTCTGTTCAAGCGCCATCTAC”, the binding signal (RPM ratio (pull-down/input)) amounted to 0.579.
With “GATGATTGTTCTCCCAGCTGATGAATTGGCTTCATCGAGTAAACAAATTTTCCTAATCTTTCTGTTCAAGCGCCATCTAC” the figure was 0.462; with “GATGATTGTTCTCCCAGCTGATGAATTCCGTGTATCGAGTAAACAAATTTTCCTAATCTTTCTGTTCAAGCGCCATCTAC”, 1.76.
With “GATGATTGTTCTCCCAGCTGATGAATTGCATCCGTCGAGTAAACAAATTTTCCTAATCTTTCTGTTCAAGCGCCATCTAC” the figure was 4.2; with “GATGATTGTTCTCCCAGCTGATGAATTTGATTCGTCGAGTAAACAAATTTTCCTAATCTTTCTGTTCAAGCGCCATCTAC”, 1.8.
Consider “GATGATTGTTCTCCCAGCTGATGAATTATCGAGGTCGAGTAAACAAATTTTCCTAATCTTTCTGTTCAAGCGCCATCTAC”, for which the binding signal (RPM ratio (pull-down/input)) is 0.218.
With “GATGATTGTTCTCCCAGCTGATGAATTATTTTTGTCGAGTAAACAAATTTTCCTAATCTTTCTGTTCAAGCGCCATCTAC” the figure was 0.947.
Consider “GATGATTGTTCTCCCAGCTGATGAATTAACCTGTTCGAGTAAACAAATTTTCCTAATCTTTCTGTTCAAGCGCCATCTAC”, for which the binding signal (RPM ratio (pull-down/input)) is 0.281.
On to “GATGATTGTTCTCCCAGCTGATGAATTGCTTTCCTCGAGTAAACAAATTTTCCTAATCTTTCTGTTCAAGCGCCATCTAC”, for which the binding signal (RPM ratio (pull-down/input)) came to 1.15.
With “GATGATTGTTCTCCCAGCTGATGAATTGCCCCCGTCGAGTAAACAAATTTTCCTAATCTTTCTGTTCAAGCGCCATCTAC” the figure was 0.406; with “GATGATTGTTCTCCCAGCTGATGAATTATGGTTATCGAGTAAACAAATTTTCCTAATCTTTCTGTTCAAGCGCCATCTAC”, 1.46; with “GATGATTGTTCTCCCAGCTGATGAATTCGACGCATCGAGTAAACAAATTTTCCTAATCTTTCTGTTCAAGCGCCATCTAC”, 0.992.
The result for “GATGATTGTTCTCCCAGCTGATGAATTCCTGAGCTCGAGTAAACAAATTTTCCTAATCTTTCTGTTCAAGCGCCATCTAC” reads 0.192.
With “GATGATTGTTCTCCCAGCTGATGAATTACTTGCTTCGAGTAAACAAATTTTCCTAATCTTTCTGTTCAAGCGCCATCTAC” the figure was 0.39.
In the case of “GATGATTGTTCTCCCAGCTGATGAATTAAGGACGTCGAGTAAACAAATTTTCCTAATCTTTCTGTTCAAGCGCCATCTAC”, the binding signal (RPM ratio (pull-down/input)) was found to be 0.23.
The result for “GATGATTGTTCTCCCAGCTGATGAATTCTTGACCTCGAGTAAACAAATTTTCCTAATCTTTCTGTTCAAGCGCCATCTAC” reads 0.216; that for “GATGATTGTTCTCCCAGCTGATGAATTACTCTCCTCGAGTAAACAAATTTTCCTAATCTTTCTGTTCAAGCGCCATCTAC”, 0.265.
With “GATGATTGTTCTCCCAGCTGATGAATTTGCCAAATCGAGTAAACAAATTTTCCTAATCTTTCTGTTCAAGCGCCATCTAC” the figure was 0.45; with “GATGATTGTTCTCCCAGCTGATGAATTCAGCTGCTCGAGTAAACAAATTTTCCTAATCTTTCTGTTCAAGCGCCATCTAC”, 0.48.
The result for “GATGATTGTTCTCCCAGCTGATGAATTGTCAATTTCGAGTAAACAAATTTTCCTAATCTTTCTGTTCAAGCGCCATCTAC” reads 0.48.
Consider “GATGATTGTTCTCCCAGCTGATGAATTTGGTGCCTCGAGTAAACAAATTTTCCTAATCTTTCTGTTCAAGCGCCATCTAC”, for which the binding signal (RPM ratio (pull-down/input)) was found to be 1.91.
Regarding “GATGATTGTTCTCCCAGCTGATGAATTAGCGGAGTCGAGTAAACAAATTTTCCTAATCTTTCTGTTCAAGCGCCATCTAC”, the binding signal (RPM ratio (pull-down/input)) was determined as 0.232.
Consider “GATGATTGTTCTCCCAGCTGATGAATTAGCGGGTTCGAGTAAACAAATTTTCCTAATCTTTCTGTTCAAGCGCCATCTAC”, for which the binding signal (RPM ratio (pull-down/input)) was determined as 0.418.
The result for “GATGATTGTTCTCCCAGCTGATGAATTGAATCTTTCGAGTAAACAAATTTTCCTAATCTTTCTGTTCAAGCGCCATCTAC” reads 0.345.
The result for “GATGATTGTTCTCCCAGCTGATGAATTAGAAGAATCGAGTAAACAAATTTTCCTAATCTTTCTGTTCAAGCGCCATCTAC” reads 0.187; that for “GATGATTGTTCTCCCAGCTGATGAATTAGATCTGTCGAGTAAACAAATTTTCCTAATCTTTCTGTTCAAGCGCCATCTAC”, 0.336.
With “GATGATTGTTCTCCCAGCTGATGAATTACGACTGTCGAGTAAACAAATTTTCCTAATCTTTCTGTTCAAGCGCCATCTAC” the figure was 0.86.
With “GATGATTGTTCTCCCAGCTGATGAATTCCTGTATTCGAGTAAACAAATTTTCCTAATCTTTCTGTTCAAGCGCCATCTAC”, the binding signal (RPM ratio (pull-down/input)) was found to be 1.12.
The result for “GATGATTGTTCTCCCAGCTGATGAATTTGTCGTTTCGAGTAAACAAATTTTCCTAATCTTTCTGTTCAAGCGCCATCTAC” reads 5.18.
For the sequence “GATGATTGTTCTCCCAGCTGATGAATTCTGATGGTCGAGTAAACAAATTTTCCTAATCTTTCTGTTCAAGCGCCATCTAC”, the binding signal (RPM ratio (pull-down/input)) was 0.848.
With “GATGATTGTTCTCCCAGCTGATGAATTGAGAAATTCGAGTAAACAAATTTTCCTAATCTTTCTGTTCAAGCGCCATCTAC” the figure was 0.462; with “GATGATTGTTCTCCCAGCTGATGAATTTTGTTGCTCGAGTAAACAAATTTTCCTAATCTTTCTGTTCAAGCGCCATCTAC”, 5.63; with “GATGATTGTTCTCCCAGCTGATGAATTCGGATGCTCGAGTAAACAAATTTTCCTAATCTTTCTGTTCAAGCGCCATCTAC”, 0.955.
The result for “GATGATTGTTCTCCCAGCTGATGAATTGGAAATTTCGAGTAAACAAATTTTCCTAATCTTTCTGTTCAAGCGCCATCTAC” reads 0.27; that for “GATGATTGTTCTCCCAGCTGATGAATTGAGGATGTCGAGTAAACAAATTTTCCTAATCTTTCTGTTCAAGCGCCATCTAC”, 0.353; that for “GATGATTGTTCTCCCAGCTGATGAATTGGTACAATCGAGTAAACAAATTTTCCTAATCTTTCTGTTCAAGCGCCATCTAC”, 0.781.
Consider “GATGATTGTTCTCCCAGCTGATGAATTTCCTGCCTCGAGTAAACAAATTTTCCTAATCTTTCTGTTCAAGCGCCATCTAC”, for which the binding signal (RPM ratio (pull-down/input)) turned out to be 0.341.
With “GATGATTGTTCTCCCAGCTGATGAATTATTGTGATCGAGTAAACAAATTTTCCTAATCTTTCTGTTCAAGCGCCATCTAC” the figure was 2.16.
With “GATGATTGTTCTCCCAGCTGATGAATTCGAGTGGTCGAGTAAACAAATTTTCCTAATCTTTCTGTTCAAGCGCCATCTAC” the figure was 0.496.
With “GATGATTGTTCTCCCAGCTGATGAATTCCGGCACTCGAGTAAACAAATTTTCCTAATCTTTCTGTTCAAGCGCCATCTAC” the figure was 0.388; with “GATGATTGTTCTCCCAGCTGATGAATTTTGTATGTCGAGTAAACAAATTTTCCTAATCTTTCTGTTCAAGCGCCATCTAC”, 6.01.
Take “GATGATTGTTCTCCCAGCTGATGAATTACACGAGTCGAGTAAACAAATTTTCCTAATCTTTCTGTTCAAGCGCCATCTAC”: the binding signal (RPM ratio (pull-down/input)) was found to be 0.36.
The result for “GATGATTGTTCTCCCAGCTGATGAATTATTTGGATCGAGTAAACAAATTTTCCTAATCTTTCTGTTCAAGCGCCATCTAC” reads 0.974; that for “GATGATTGTTCTCCCAGCTGATGAATTCTTGGGCTCGAGTAAACAAATTTTCCTAATCTTTCTGTTCAAGCGCCATCTAC”, 0.211; that for “GATGATTGTTCTCCCAGCTGATGAATTTATGCGGTCGAGTAAACAAATTTTCCTAATCTTTCTGTTCAAGCGCCATCTAC”, 1.09.
Consider “GATGATTGTTCTCCCAGCTGATGAATTGCCAGGCTCGAGTAAACAAATTTTCCTAATCTTTCTGTTCAAGCGCCATCTAC”, for which the binding signal (RPM ratio (pull-down/input)) came out at 0.568.
With “GATGATTGTTCTCCCAGCTGATGAATTCGCCGCTTCGAGTAAACAAATTTTCCTAATCTTTCTGTTCAAGCGCCATCTAC” the figure was 0.535; with “GATGATTGTTCTCCCAGCTGATGAATTCTGCCTTTCGAGTAAACAAATTTTCCTAATCTTTCTGTTCAAGCGCCATCTAC”, 5.08; with “GATGATTGTTCTCCCAGCTGATGAATTGTAGGAATCGAGTAAACAAATTTTCCTAATCTTTCTGTTCAAGCGCCATCTAC”, 0.255.
